{"source": "patent US9234216B2", "about": "“Variant CBH I polypeptides” (BP Corporation North America Inc., priority 2011, dated 2016)", "molecules": {"B1": {"name": "SEQ ID NO:134: wild type BD29555 CBH I (cellobiohydrolase I), parent of the variants (protein)", "chain": "MSALNSFNMYKSALILGSLLATAGAQQIGTYTAETHPSLSWSTCKSGGSCTTNSGAITLDANWRWVHGVNTSTNCYTGNTWNTAICDTDASCAQDCALDGADYSGTYGITTSGNSLRLNFVTGSNVGSRTYLMADNTHYQIFDLLNQEFTFTVDVSHLPCGLNGALYFVTMDADGGVSKYPNNKAGAQYGVGYCDSQCPRDLKFIAGQANVEGWTPSSNNANTGLGNHGACCAELDIWEANSISEALTPHPCDTPGLSVCTTDACGGTYSSDRYAGTCDPDGCDFNPYRLGVTDFYGSGKTVDTTKPITVVTQFVTDDGTSTGTLSEIRRYYVQNGVVIPQPSSKISGVSGNVINSDFCDAEISTFGETASFSKHGGLAKMGAGMEAGMVLVMSLWDDYSVNMLWLDSTYPTNATGTPGAARGSCPTTSGDPKTVESQSGSSYVTFSDIRVGPFNSTFSGGSSTGGSSTTTASGTTTTKASSTSTSSTSTGTGVAAHWGQCGGQGWTGPTTCASGTTCTVVNPYYSQCL", "modifications": "/note=“Description of Unknown Wildtype cellobiohydrolase polypeptide”"}, "B2": {"name": "SEQ ID NO:136: BD29555 CBH I variant: R273K, R422K (product tolerance) (protein)", "chain": "B1 chain with R273K, R422K"}, "B3": {"name": "SEQ ID 61, 62: BD29555 CBH I variant: S104N (Table A prints it under SEQ ID NO 60) (protein)", "chain": "B1 chain with S104N"}, "B4": {"name": "SEQ ID 81, 82: BD29555 CBH I variant: V392A, V401A, T417A (protein)", "chain": "B1 chain with V392A, V401A, T417A"}, "B5": {"name": "SEQ ID 63, 64: BD29555 CBH I variant: V121S (protein)", "chain": "B1 chain with V121S"}, "B6": {"name": "SEQ ID 89, 90: BD29555 CBH I variant: A472M (protein)", "chain": "B1 chain with A472M"}, "B7": {"name": "SEQ ID 83, 84: BD29555 CBH I variant: L404T (protein)", "chain": "B1 chain with L404T"}, "B8": {"name": "SEQ ID 91, 92: BD29555 CBH I variant: V401A, V494L (protein)", "chain": "B1 chain with V401A, V494L"}, "B9": {"name": "SEQ ID 85, 86: BD29555 CBH I variant: S463Y (protein)", "chain": "B1 chain with S463Y"}, "B10": {"name": "SEQ ID 87, 88: BD29555 CBH I variant: A221V, V401A, G474W (protein)", "chain": "B1 chain with A221V, V401A, G474W"}}, "key": {"[1]": {"assay": "Saccharification of pretreated bagasse by CBHI variants in a cocktail with CBHII and EG", "assay_type": "biochemical", "details": "Table 2; 5% w/v pretreated bagasse, 35° C., pH5.2, CBHI 4 mg/g cellulose; (% conversion of variant − % conversion of wt)/% conversion of wt"}, "[2]": {"assay": "Thermotolerance: residual activity on MUL after 20 minute heat challenge", "assay_type": "biochemical", "details": "residual activity on MUL at 22 C vs non-challenged sample; for % Residual Activity @ 60° C.: heat challenge 20 minutes at 60 C; for % Residual Activity @ 65° C.: heat challenge 20 minutes at 65 C; for % Residual Activity @ 70° C.: heat challenge 20 minutes at 70 C; for % Residual Activity @ 75° C.: heat challenge 20 minutes at 75 C; for % Residual Activity @ 80° C.: heat challenge 20 minutes at 80 C", "protocol": "Samples heat challenged at 22 C, 60 C, 65 C, 70 C, 75 C, and 80 C for 20 minutes. After heat challenge, samples cooled on ice. Residual activity determined on MUL at 22 C.\n(§1) Calculations for % residual activity: % Residual Activity=Activity heat challenged sample/Activity non-challenged sample (22 C). All residual activities calculated indepentyl from parent residual activity Melting Temperatures were determined by Differential Scanning calorimetry, using 500-700 μg/mL of degassed sample."}, "[3]": {"assay": "Melting temperature by Differential Scanning calorimetry", "assay_type": "physicochemical", "details": "DSC, 500-700 μg/mL degassed sample", "protocol": "as §1"}, "[4]": {"assay": "Cellobiose (product) inhibition with methylumbelliferyl lactoside (MUL) as substrate", "assay_type": "biochemical", "details": "inhibition of the CBHI by cellobiose", "protocol": "(§2) The parent (wild-type) CBHI (SEQ ID NO:134, encoded by SEQ ID NO:133) and variant CBHI (SEQ ID NO:136, encoded by SEQ ID NO:135) were assayed to determine their cellobiose (product) inhibition.\nIn one assy, cellobiose inhibition was measured using methylumbelliferyl lactoside (MUL) as the substrate. IC50, the half maximal inhibitory concentration of cellobiose, was determined."}, "[5]": {"assay": "Cellobiose inhibition with 0.1% phosphoric acid swollen cellulose (PASC) and Calcofluor", "assay_type": "biochemical", "details": "inhibition of the CBHI by cellobiose, 0.1% PASC, Calcofluor, 2 hours at 35° C.", "protocol": "as §2\nIn another assay, cellobiose inhibition was measured using 0.1% phosphoric acid swollen cellulose (PASC) as the substrate. CBHI was incubated with PASC and Calcofluor (which intercalates between cellulose strands and fluoresces upon binding to cellulose) for 2 hours at 35° C. IC50 was measured."}, "[6]": {"assay": "Cellobiose inhibition in saccharification assays using bagasse", "assay_type": "biochemical", "details": "for CBHI activity decrease: 5% w/v pretreated bagasse, 4 mg/g CBHI, 35° C.", "protocol": "as §2\nIn another assay, cellobiose inhibition was measured in saccharification assays using bagasse (12% solids in 200 mM MES buffer, pH 6) as the substrate. 5% w/v pretreated bagasse was incubated with 4 mg/g of CBHI at 35° C. at 20 RPM in hybridization ovens."}, "[7]": {"details": "72 hours, when beta-glucosidase was added (so in the source)"}}, "note": "Where a chain is given by its changes, count along the chain named. Names and notes keep the numbering of the source.", "data": [{"molecule": "B1", "values": [{"measurement": "% improvement over WT @ 48 hr", "setting": "[1]", "result": 0.0, "unit": "%"}, {"measurement": "% Residual Activity @ 60° C.", "setting": "[2]", "result": 83, "unit": "%"}, {"measurement": "% Residual Activity @ 65° C.", "setting": "[2]", "result": 26, "unit": "%"}, {"measurement": "% Residual Activity @ 70° C.", "setting": "[2]", "result": 18, "unit": "%"}, {"measurement": "% Residual Activity @ 75° C.", "setting": "[2]", "result": 31, "unit": "%"}, {"measurement": "% Residual Activity @ 80° C.", "setting": "[2]", "result": 43, "unit": "%"}, {"measurement": "Melting Temperature", "setting": "[3]", "result": 69.5, "unit": "°C"}, {"measurement": "IC50, the half maximal inhibitory concentration of cellobiose", "setting": "[4]", "result": 60, "unit": "mg/L"}, {"measurement": "IC50 of cellobiose", "setting": "[5]", "result": 2200, "unit": "mg/L"}, {"measurement": "CBHI activity decrease", "setting": "[6]; 48 hours, when no beta-glucosidase was added", "result": 60, "unit": "%"}, {"measurement": "CBHI activity decrease", "setting": "[6]; [7]", "result": 50, "unit": "%"}, {"measurement": "activity on bagasse, wild type compared with mutant", "setting": "[6]; saccharification of bagasse", "result": "higher than that of the CBHI mutant"}]}, {"molecule": "B2", "values": [{"measurement": "IC50, the half maximal inhibitory concentration of cellobiose", "setting": "[4]", "result": "> 250", "unit": "mg/L"}, {"measurement": "IC50 of cellobiose", "setting": "[5]", "result": "> 25000", "unit": "mg/L"}, {"measurement": "CBHI activity decrease", "setting": "[6]; 48 hours, when beta-glucosidase was added (so in the source)", "result": 22, "unit": "%"}, {"measurement": "CBHI activity decrease", "setting": "[6]; [7]", "result": 14, "unit": "%"}, {"measurement": "effect of the presence of cellobiose on activity", "setting": "[6]; no beta-glucosidase added or gluconolactone added", "result": "less affected by the presence of cellobiose"}]}, {"molecule": "B3", "values": [{"measurement": "% Residual Activity @ 60° C.", "setting": "[2]", "result": 97, "unit": "%"}, {"measurement": "% Residual Activity @ 65° C.", "setting": "[2]", "result": 87, "unit": "%"}, {"measurement": "% Residual Activity @ 70° C.", "setting": "[2]", "result": 46, "unit": "%"}, {"measurement": "% Residual Activity @ 75° C.", "setting": "[2]", "result": 54, "unit": "%"}, {"measurement": "% Residual Activity @ 80° C.", "setting": "[2]", "result": 56, "unit": "%"}, {"measurement": "Melting Temperature", "setting": "[3]", "result": 71.1, "unit": "°C"}]}, {"molecule": "B4", "values": [{"measurement": "% Residual Activity @ 60° C.", "setting": "[2]", "result": 96, "unit": "%"}, {"measurement": "% Residual Activity @ 65° C.", "setting": "[2]", "result": 88, "unit": "%"}, {"measurement": "% Residual Activity @ 70° C.", "setting": "[2]", "result": 71, "unit": "%"}, {"measurement": "% Residual Activity @ 75° C.", "setting": "[2]", "result": 67, "unit": "%"}, {"measurement": "% Residual Activity @ 80° C.", "setting": "[2]", "result": 71, "unit": "%"}, {"measurement": "Melting Temperature", "setting": "[3]", "result": 74.9, "unit": "°C"}]}, {"molecule": "B5", "values": [{"measurement": "% Residual Activity @ 60° C.", "setting": "[2]", "result": 80, "unit": "%"}, {"measurement": "% Residual Activity @ 65° C.", "setting": "[2]", "result": 39, "unit": "%"}, {"measurement": "% Residual Activity @ 70° C.", "setting": "[2]", "result": 51, "unit": "%"}, {"measurement": "% Residual Activity @ 75° C.", "setting": "[2]", "result": 53, "unit": "%"}, {"measurement": "% Residual Activity @ 80° C.", "setting": "[2]", "result": 54, "unit": "%"}, {"measurement": "Melting Temperature", "setting": "[3]", "result": 68.7, "unit": "°C"}]}, {"molecule": "B6", "values": [{"measurement": "% Residual Activity @ 60° C.", "setting": "[2]", "result": 96, "unit": "%"}, {"measurement": "% Residual Activity @ 65° C.", "setting": "[2]", "result": 47, "unit": "%"}, {"measurement": "% Residual Activity @ 70° C.", "setting": "[2]", "result": 28, "unit": "%"}, {"measurement": "% Residual Activity @ 75° C.", "setting": "[2]", "result": 54, "unit": "%"}, {"measurement": "% Residual Activity @ 80° C.", "setting": "[2]", "result": 52, "unit": "%"}, {"measurement": "Melting Temperature", "setting": "[3]", "result": 70.7, "unit": "°C"}]}, {"molecule": "B7", "values": [{"measurement": "% Residual Activity @ 60° C.", "setting": "[2]", "result": 93, "unit": "%"}, {"measurement": "% Residual Activity @ 65° C.", "setting": "[2]", "result": 77, "unit": "%"}, {"measurement": "% Residual Activity @ 70° C.", "setting": "[2]", "result": 69, "unit": "%"}, {"measurement": "% Residual Activity @ 75° C.", "setting": "[2]", "result": 69, "unit": "%"}, {"measurement": "% Residual Activity @ 80° C.", "setting": "[2]", "result": 72, "unit": "%"}, {"measurement": "Melting Temperature", "setting": "[3]", "result": 70.3, "unit": "°C"}]}, {"molecule": "B8", "values": [{"measurement": "% Residual Activity @ 60° C.", "setting": "[2]", "result": 96, "unit": "%"}, {"measurement": "% Residual Activity @ 65° C.", "setting": "[2]", "result": 92, "unit": "%"}, {"measurement": "% Residual Activity @ 70° C.", "setting": "[2]", "result": 52, "unit": "%"}, {"measurement": "% Residual Activity @ 75° C.", "setting": "[2]", "result": 61, "unit": "%"}, {"measurement": "% Residual Activity @ 80° C.", "setting": "[2]", "result": 58, "unit": "%"}, {"measurement": "Melting Temperature", "setting": "[3]", "result": 73.6, "unit": "°C"}]}, {"molecule": "B9", "values": [{"measurement": "% Residual Activity @ 60° C.", "setting": "[2]", "result": 99, "unit": "%"}, {"measurement": "% Residual Activity @ 65° C.", "setting": "[2]", "result": 96, "unit": "%"}, {"measurement": "% Residual Activity @ 70° C.", "setting": "[2]", "result": 41, "unit": "%"}, {"measurement": "% Residual Activity @ 75° C.", "setting": "[2]", "result": 42, "unit": "%"}, {"measurement": "% Residual Activity @ 80° C.", "setting": "[2]", "result": 48, "unit": "%"}, {"measurement": "Melting Temperature", "setting": "[3]", "result": 74.2, "unit": "°C"}]}, {"molecule": "B10", "values": [{"measurement": "% Residual Activity @ 60° C.", "setting": "[2]", "result": 99, "unit": "%"}, {"measurement": "% Residual Activity @ 65° C.", "setting": "[2]", "result": 96, "unit": "%"}, {"measurement": "% Residual Activity @ 70° C.", "setting": "[2]", "result": 35, "unit": "%"}, {"measurement": "% Residual Activity @ 75° C.", "setting": "[2]", "result": 43, "unit": "%"}, {"measurement": "% Residual Activity @ 80° C.", "setting": "[2]", "result": 51, "unit": "%"}, {"measurement": "Melting Temperature", "setting": "[3]", "result": 73.3, "unit": "°C"}]}]}
